Data published in article PMC6919601, “Identification of Plasmodium dipeptidyl aminopeptidase allosteric inhibitors by high throughput screening” (PLoS ONE, 2019).
About 230 (0.21%) of roughly 110,000 compounds showed an effect of 50% or more. Some of the results follow.

Target: DPAP1 (Plasmodium falciparum, UniProt Q8IIJ9)
Experiment: primary screen, percent inhibition; read by cleavage of a fluorogenic dipeptide substrate; higher = more effect of the substance
Set-up: species or system P. falciparum D10 trophozoite lysates; single well
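Note: 30 min substrate incubation versus DMSO and 10 µM JCP410 controls.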

Sequence of DPAP1 (Q8IIJ9 whole entry, looked up): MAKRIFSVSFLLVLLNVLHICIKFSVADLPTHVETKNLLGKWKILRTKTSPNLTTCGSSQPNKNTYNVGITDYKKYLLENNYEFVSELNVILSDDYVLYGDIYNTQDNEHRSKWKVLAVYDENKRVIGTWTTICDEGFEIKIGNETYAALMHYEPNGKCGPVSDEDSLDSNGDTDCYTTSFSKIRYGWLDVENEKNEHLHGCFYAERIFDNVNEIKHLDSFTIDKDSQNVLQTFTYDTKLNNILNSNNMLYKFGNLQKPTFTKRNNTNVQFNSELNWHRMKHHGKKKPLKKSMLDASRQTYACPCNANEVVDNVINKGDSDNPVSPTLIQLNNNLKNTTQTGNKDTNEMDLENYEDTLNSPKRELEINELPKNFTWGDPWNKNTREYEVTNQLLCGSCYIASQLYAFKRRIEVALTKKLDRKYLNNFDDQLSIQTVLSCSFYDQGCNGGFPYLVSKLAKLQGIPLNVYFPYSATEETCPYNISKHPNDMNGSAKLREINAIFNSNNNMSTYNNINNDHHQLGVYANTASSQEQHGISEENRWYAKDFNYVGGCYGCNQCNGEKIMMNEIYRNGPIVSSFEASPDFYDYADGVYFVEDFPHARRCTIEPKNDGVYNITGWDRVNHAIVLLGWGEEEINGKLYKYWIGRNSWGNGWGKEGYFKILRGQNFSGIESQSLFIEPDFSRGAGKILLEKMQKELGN

Structure (SMILES) | % Inhibition @ 10 uM
Cc1c(CC(=O)N2CCOCC2)c(=O)oc2c(C)c3occ(C(C)(C)C)c3cc12 | 3.94%
O=C(Cn1cnc2c(nnn2Cc2ccccc2F)c1=O)NCc1ccco1 | 1.24%
O=S(=O)(NCCC1=CCCCC1)c1ccc(-c2cc(C(F)(F)F)no2)s1 | 0.185%
COc1ccc(C2SCCN2S(=O)(=O)c2ccc3ccccc3c2)cc1OC (stereo not drawn) | 6.07%
COc1cccc(C2Oc3ccccc3C3=C2C(c2ccc(C)cc2)n2ncnc2N3)c1 (stereo not drawn) | 1.53%
C/C(Cn1nnc2ccccc21)=N/OC(=O)c1c(F)cccc1F | 4.01%
COc1ccc(NC(=O)CCC(=O)Nc2cccc(C)c2)cc1 | -6.75%
Cc1ccc(C)c(CN2CCC(C(N)=O)CC2)c1 | -4.04%
CCCCCCn1cnc2c1c(=O)[nH]c(=O)n2C | -1.47%
COc1cc([N+](=O)[O-])ccc1N1CCCC1 | 1.13%
CC(C)(C)C1CC(C(F)(F)F)n2nc(C(=O)Nc3cccnc3Cl)cc2N1 (stereo not drawn) | -3.05%
CC1CC(=O)C2=C(C1)OC(N)=C(C#N)C2c1ccc(Br)s1 (stereo not drawn) | 3.54%
c1ccc(NCc2cn3ccccc3n2)cc1 | -2.03%
C=CCN(CC=C)C(=O)c1ccc(OC)c(OC)c1 | -1.93%
Cc1ccc(C2=CC(c3ccc(Br)cc3)n3ncnc3N2)cc1 (stereo not drawn) | -4.26%
O=C(O)c1ccc(NC(=O)c2cc([N+](=O)[O-])ccc2Cl)cc1 | -0.197%
CC(=O)c1c(C)n(-c2cccc(Cl)c2)c2ccc(O)cc12 | -0.0217%
O=C(c1ccccc1Nc1ccccc1)N1CCCCC1 | 2.22%
COc1cc(NS(=O)(=O)c2ccc(Br)cc2)c(OC)cc1Cl | -3.18%
CC(=O)c1ccc2c(c1)C(=O)c1cc(C(C)=O)ccc1-2 | 3.34%
CCOc1ccc(Cl)cc1S(=O)(=O)NCc1cccnc1 | 5.66%
CSC1=NSC2=NC(=O)/C(=C\c3ccc(C)cc3)C(=N)N12 | -1.31%
O=C(C1CCN(S(=O)(=O)c2cccc3nsnc23)CC1)N1CCn2c1nc1ccccc12 | 0.208%
CCN1C(=O)C(CC(=O)O)S/C1=N/c1ccc(F)cc1 (stereo not drawn) | -5.27%
Cc1oc2cc(O)cc(C)c2c(=O)c1Oc1ccccc1 | 2.79%
CN(C1CCCCC1)S(=O)(=O)c1ccc(-n2cccn2)cc1 | -2.65%

Structure (SMILES) | % Inhibition @ 10 uM
Cc1cc(C)nc(NC(=O)c2sc3ccccc3c2Cl)c1 | -2.07%
O=C1c2cccnc2C(=O)N1Cc1ccc2c(c1)OCO2 | -1.82%
O=C(CC(c1ccc(F)cc1)N1Cc2ccccc2C1=O)N1CCN(C(=O)c2ccco2)CC1 (stereo not drawn) | -5.54%
OCCNCc1cc(Cl)ccc1OCc1ccc(Cl)cc1 | 9.88%
O=C(C(Cc1ccccc1)n1cccc1)N1CCN(Cc2ccccc2)CC1 (stereo not drawn) | -0.692%
CC(C)C[C@@H](C(=O)NCC#N)c1cccc(-c2cccc(OC3CCN(C)C3)c2)c1 (stereo partly drawn) | 1.7%
CC(C)(C)NC(=O)c1nn2c(C(F)(F)F)cc(-c3ccco3)nc2c1Br | -0.992%
Cc1cc(Cl)ccc1OCC(=O)NC1CCCC1 | 0.147%
COc1cc(C2C(C(=O)c3cc4ccccc4o3)=C(O)C(=O)N2c2nnc(C)s2)ccc1O (stereo not drawn) | 0.413%
COc1ccccc1NC(=O)/C(=C/c1cccs1)NC(=O)c1ccc(C)c(C)c1 | 0.746%
O=C(CNC(=O)c1cc2ccccc2o1)NCc1cccs1 | -3.93%
O=C1C(Cl)=C(N2CCOCC2)C(=O)N1c1cccc(Cl)c1Cl | 1.82%
COc1ccc(OCC(=O)NCCC23CC4CC(CC(C4)C2)C3)cc1 | 4.85%
Cn1c(C(=O)O)c(CC(=O)N2CCC(Cc3ccccc3)CC2)c2ccccc21 | 2.84%
C/C(=C\c1ccccc1)CN(C)C1CCN(C)CC1 | 1.26%
Nc1ccc(C2CC(=O)NC(=O)N2)cc1 (stereo not drawn) | 3.61%
COCc1cc(C)nc2sc(C(=O)Nc3ccc(Cl)cc3Cl)c(N)c12 | 3.8%
CO/C(O)=C1\C(C)=NC2=C(C(=O)CCC2)C1c1ccccc1OC (stereo not drawn) | 2.45%
Nc1cccc(/N=C/c2nc(-c3ccccc3Br)oc2O)n1 | -2.27%
CC12CN3CC(C)(CN(C1)C3c1ccc3ccccc3c1O)C2=O (stereo not drawn) | 0.878%
O=C(NCc1cccs1)c1ccc(CS(=O)(=O)Cc2cccc(Cl)c2)o1 | -0.971%
CC(=O)Nc1ccc(N/C=C/C(=O)c2ccc(-c3ccccc3)cc2)cc1 | 1.57%
O=C(NC1(C(F)(F)F)C(=O)Nc2c1c(=O)[nH]c(=O)n2-c1ccccc1F)c1ccc(Cl)cc1 (stereo not drawn) | 1.61%
Cc1sc(C)c(-c2c(C)sc(C)c2C(=O)O)c1C(=O)O | 0.709%
Cc1ccc(Cl)cc1NC(=O)c1ccc(N(C)S(C)(=O)=O)cc1 | 3.49%
CC1(C)CC(=O)/C(=C/c2cccs2)C(C)(C)N1 | 1.66%

Structure (SMILES) | % Inhibition @ 10 uM
O=C(/C=C/c1ccccc1Cl)N1CCOCC1 | -2.12%
Cc1nc2ncnn2c(C)c1CCC(=O)NC(C)C | -4.1%
O=C(NCc1ccccc1)c1c(NC(=O)C2COc3ccccc3O2)sc2c1CCCC2 (stereo not drawn) | -3.75%
CC(C)(C)c1ccc(C(=O)NCCc2ccc(S(N)(=O)=O)cc2)cc1 | 2.82%
c1ccc(-c2cn(-c3ccccc3)c3ncnc(NCc4ccco4)c23)cc1 | 10.5%
Cc1ccc(-c2csc(/C(C#N)=C/c3ccccc3[N+](=O)[O-])n2)cc1 | 4.33%
CCOc1ccc(C(=O)Nc2ccc3c(c2)OCCO3)cc1 | 2.13%
Cc1n[nH]c(C)c1CCCCCOc1ccccc1F | -4.3%
COc1ccc(S(=O)(=O)NCc2ccc(C(=O)NC3CCCCCCC3)cc2)cc1 | -1.76%
Cc1ccc(CNC(=O)C(C)N2Cc3ccccc3C2=O)cc1 (stereo not drawn) | 0.822%
COCCCN(Cc1ccco1)C(=O)c1cc2c(Cl)nc3ccc(C)cc3c2s1 | -1.7%
Clc1ccc(-n2ncc3c(NC4CCCCC4)ncnc32)cc1 | 7.77%
COc1ccc(/C=C(/NC(=O)c2ccccc2)C(=O)O)c(OC)c1OC | -4.93%
Cn1c(SCC(=O)Nc2nn(-c3ccccc3)nc2C(N)=O)nnc1-c1cccnc1 | -0.834%
COc1ccccc1CNc1ncccc1N1C(=O)CCC1=O | -4.69%
O=[N+]([O-])c1ccc(Nc2ccccc2O)c2nonc12 | 12.6%
CCn1c2ccccc2c2cc(CNc3cccc(C)c3)ccc21 | -7.35%
Cc1nc2ccn(Cc3cccs3)c(=O)c2cc1C(=O)NCCc1ccco1 | 0.0575%
CCCCSc1nnc(NC(=O)CSc2ccc3ccccc3n2)s1 | 3.66%
COc1ccc(NC(=O)c2ccco2)cc1Cl | -4.93%
CCOC(=O)C1=C(O)/C(=C\c2cc(C)n(-c3ccccc3C(=O)OC)c2C)N=C1C | 3.47%
CCOC(=O)c1c(N)nn(C(=O)c2ccccc2F)c1-c1ccc(OC)cc1 | -0.222%
Cc1ccsc1/C=C1/N=C(c2cccc3ccccc23)OC1=O | 3.58%
CCN(CC)CCCNC(=O)Cn1cnc2sc(C)c(S(=O)(=O)N3CCC(C)CC3)c2c1=O | 2.06%
CN(C)c1ccc(CN2CCC(Cc3ccccc3)CC2)cc1 | -6.47%
Cc1cccc(OCC(=O)Nc2ccc(S(=O)(=O)N3CCCCCC3)cc2)c1 | -6.08%

Structure (SMILES) | % Inhibition @ 10 uM
Cc1oc2ncnc(NC3CCCC3)c2c1C(=O)O | -5.76%
Oc1ccc(Br)cc1/C=N/n1cnnc1 | 22.7%
O=C(Cn1c(C(F)(F)F)nc2ccccc21)N1CCCc2ccccc21 | 4.88%
CCOc1nc(-c2ccccc2)cc(-c2ccccc2)n1 | 3.53%
CC(C)Sc1nnc(N2C(N)=C(C#N)C(c3ccc4c(c3)OCO4)C3=C2CC(C)(C)CC3=O)s1 (stereo not drawn) | -1.24%
Cc1ccc(-c2nc3c(c(SCC(=O)N4CCCCC4)n2)Cc2c(CO)cnc(C)c2O3)cc1 | 4.06%
O=C(Cc1ccccc1)NCCNC(=O)c1c(O)c2ccccc2oc1=O | 6.47%
CCOC(=O)/C(C#N)=C1\C(=O)Nc2ccccc21 | 2.41%
O=C(Nc1ncc2c(n1)CC(c1ccccc1Cl)CC2=O)c1ccccc1 (stereo not drawn) | -6.67%
Cc1ccc(CCN2CC(C(=O)NCCCOC(C)C)CC2=O)cc1 (stereo not drawn) | -1.79%
CCOc1ccc(NC(=O)C(CC(=O)O)Cc2ccc(Br)cc2)cc1 (stereo not drawn) | 1.13%
Cc1sc(N)nc1-c1ccccc1 | 3.44%
CC1=CSC2=NC(=O)/C(=C/c3ccc(OCc4ccccc4)c(Cl)c3)C(=N)N12 | 1.75%
CCOC(=O)c1cc(-c2ccc(C)cc2)n(CC(=O)NCc2ccc3c(c2)OCO3)c1C | 1.72%
C=CCOc1c(Br)cc(CNC(C)(C)C)cc1OCC | -5.15%
COc1ccc(C=C2C(=O)c3ccccc3C2=O)cc1O | -6.23%
COc1ccccc1-n1c(CNC(=O)c2ccco2)nnc1SCC(=O)Nc1nnc(C)s1 | 1.08%
COc1cccc(CNC(C)(C)CO)c1OCc1ccc(Cl)cc1 | -8.33%
Cc1ccc(CNC(=O)CN2CC(=O)N3CCCC3C2=O)cc1 (stereo not drawn) | -1.67%
O=C(NC1CCCCCC1)c1ccc(CS(=O)Cc2ccc(Cl)cc2)o1 (stereo not drawn) | 0.951%
Cn1c(=O)c2c(nc3n(CCCO)c(-c4ccc(F)cc4)cn23)n(C)c1=O | -0.0959%
CCOC(=O)c1cnc2cc(F)c(F)cc2c1O | -4.4%
CCN(CC)CCN(C)C(C)Cc1ccccc1F (stereo not drawn) | -3.42%
c1c2c(cc3c1OCCO3)C1(CCCC1)CNC2 | -8.21%
